Assay results as given in the BET-seq Pho4 binding data (Le et al. 2018).
Some of the results follow. Values were computed here from the reads of four pooled replicates and scatter widely.

These sequences were tested against T1, Pho4 (S. cerevisiae) (UniProt P07270) (assay: relative binding free energy (BET-seq); higher = weaker binding). Conditions: reference: library average.
T1 sequence: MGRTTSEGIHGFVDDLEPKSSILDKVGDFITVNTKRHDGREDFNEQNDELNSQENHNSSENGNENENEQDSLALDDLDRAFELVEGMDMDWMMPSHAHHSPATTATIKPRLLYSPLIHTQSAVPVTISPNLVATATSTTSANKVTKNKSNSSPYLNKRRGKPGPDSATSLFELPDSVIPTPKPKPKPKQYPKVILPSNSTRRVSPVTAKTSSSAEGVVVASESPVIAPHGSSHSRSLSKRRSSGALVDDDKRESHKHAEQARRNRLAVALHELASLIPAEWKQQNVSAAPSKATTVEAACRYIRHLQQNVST
TATATCACGTGTCTTG was tested, and the “relative binding free energy” value was 0.23 kcal/mol. TTGAGCACGTGTCGTA was tested, and the “relative binding free energy” value was -0.11 kcal/mol. With AGGCTCACGTGGTTTG the “relative binding free energy” value was 0.05 kcal/mol. With AAAGTCACGTGGTATC the “relative binding free energy” value was 0.13 kcal/mol. In the case of CTGTACACGTGATGTT, the “relative binding free energy” value was 0.24 kcal/mol. For TGGTACACGTGAAGGC, the “relative binding free energy” value was 0.45 kcal/mol. For TCGGACACGTGATGTG, the “relative binding free energy” value was 0.21 kcal/mol. With TGGTACACGTGTTCTA the “relative binding free energy” value was 0.05 kcal/mol. In the case of GGTAGCACGTGTGGCC, the “relative binding free energy” value was 0.07 kcal/mol. CAAGTCACGTGGGTAT was tested, and the “relative binding free energy” value was 0.02 kcal/mol. With CGTTGCACGTGGGAAG the “relative binding free energy” value was -0.03 kcal/mol. For TTTATCACGTGATTGT, the “relative binding free energy” value was 0.3 kcal/mol. In the case of TAGGACACGTGCGGGT, the “relative binding free energy” value was -0.03 kcal/mol. In the case of TTCGTCACGTGGGATT, the “relative binding free energy” value was -0.06 kcal/mol. For TGTTGCACGTGGAATG, the “relative binding free energy” value was 0.09 kcal/mol. In the case of GAGGGCACGTGTGGTT, the “relative binding free energy” value was 0.01 kcal/mol. In the case of TTGGCCACGTGGCTTT, the “relative binding free energy” value was -0.14 kcal/mol. In the case of TTGAGCACGTGACGAG, the “relative binding free energy” value was 0.1 kcal/mol. With GTGGTCACGTGGAAGT the “relative binding free energy” value was 0.19 kcal/mol. In the case of ACGATCACGTGGTTGT, the “relative binding free energy” value was 0.13 kcal/mol. In the case of TGGCACACGTGGTTAT, the “relative binding free energy” value was -0.04 kcal/mol. With TGCGGCACGTGGAGTA the “relative binding free energy” value was -0.09 kcal/mol. With ATGTTCACGTGCATAG the “relative binding free energy” value was 0.19 kcal/mol. In the case of TAAGGCACGTGTATTG, the “relative binding free energy” value was -0.09 kcal/mol. For ATTTACACGTGTTAAA, the “relative binding free energy” value was 0.03 kcal/mol. With GGGCGCACGTGATGGG the “relative binding free energy” value was 0.2 kcal/mol. For GAAGGCACGTGCTGGT, the “relative binding free energy” value was -0.14 kcal/mol. GTATTCACGTGCTGTG was tested, and the “relative binding free energy” value was 0.41 kcal/mol. With GGTGTCACGTGTATTA the “relative binding free energy” value was 0.11 kcal/mol. In the case of GGGAGCACGTGTGTAC, the “relative binding free energy” value was 0.03 kcal/mol. With TTTATCACGTGGCGAG the “relative binding free energy” value was -0.08 kcal/mol. ATATACACGTGATTTG was tested, and the “relative binding free energy” value was 0.16 kcal/mol. With TAATTCACGTGGTAAA the “relative binding free energy” value was 0.11 kcal/mol. In the case of TGGTTCACGTGCCGTA, the “relative binding free energy” value was 0.32 kcal/mol. With GTATTCACGTGGCCTG the “relative binding free energy” value was 0.25 kcal/mol. TGTAGCACGTGGAGGT was tested, and the “relative binding free energy” value was -0.06 kcal/mol. With GAAGGCACGTGGTTAG the “relative binding free energy” value was -0.14 kcal/mol. TATTACACGTGTCAGG was tested, and the “relative binding free energy” value was 0.13 kcal/mol. CTTTTCACGTGGGATG was tested, and the “relative binding free energy” value was 0.14 kcal/mol. With AGGCCCACGTGGGGTA the “relative binding free energy” value was -0.17 kcal/mol. In the case of GGGAGCACGTGCGTGC, the “relative binding free energy” value was -0.09 kcal/mol. In the case of ATGTTCACGTGGAGAT, the “relative binding free energy” value was 0.14 kcal/mol. With GATGTCACGTGATTTA the “relative binding free energy” value was 0.3 kcal/mol. ATCTGCACGTGTTTTT was tested, and the “relative binding free energy” value was -0.07 kcal/mol. With CGTGTCACGTGCGTTT the “relative binding free energy” value was 0.08 kcal/mol. In the case of GGAGTCACGTGGACGT, the “relative binding free energy” value was 0.17 kcal/mol. With TTGGTCACGTGCGGTG the “relative binding free energy” value was 0.06 kcal/mol. For ACGGACACGTGGAGGG, the “relative binding free energy” value was -0.07 kcal/mol. With TATATCACGTGATGAA the “relative binding free energy” value was 0.29 kcal/mol. For TGGGTCACGTGAATGC, the “relative binding free energy” value was 0.25 kcal/mol. In the case of GGAGACACGTGCTGGG, the “relative binding free energy” value was -0.08 kcal/mol. With GCTATCACGTGAAGTT the “relative binding free energy” value was 0.5 kcal/mol. GTAGGCACGTGTTTGA was tested, and the “relative binding free energy” value was -0.07 kcal/mol. For GGCGTCACGTGTTGAA, the “relative binding free energy” value was 0.18 kcal/mol. GATGGCACGTGAAGGG was tested, and the “relative binding free energy” value was 0.16 kcal/mol. With TTGGCCACGTGGATTG the “relative binding free energy” value was -0.02 kcal/mol. With CATTGCACGTGTTAGT the “relative binding free energy” value was 0.05 kcal/mol. With AAGTTCACGTGGAGGA the “relative binding free energy” value was 0.31 kcal/mol. For TTGGTCACGTGTTAAA, the “relative binding free energy” value was 0.06 kcal/mol. With AGGTTCACGTGTTAGT the “relative binding free energy” value was 0.26 kcal/mol. In the case of TAAGTCACGTGGGCGG, the “relative binding free energy” value was -0.03 kcal/mol. For GGAATCACGTGTGGCG, the “relative binding free energy” value was 0.21 kcal/mol. In the case of AGTGGCACGTGAGGGT, the “relative binding free energy” value was 0.1 kcal/mol. With GTCTTCACGTGGGGAA the “relative binding free energy” value was 0.15 kcal/mol. TTGTGCACGTGGCTCG was tested, and the “relative binding free energy” value was -0.15 kcal/mol. ATCGGCACGTGGTCTG was tested, and the “relative binding free energy” value was -0.14 kcal/mol. With CATGGCACGTGTAAGT the “relative binding free energy” value was 0.11 kcal/mol. In the case of TGTAGCACGTGAAGGG, the “relative binding free energy” value was 0.26 kcal/mol. TGGGGCACGTGGAGGT was tested, and the “relative binding free energy” value was -0.03 kcal/mol. For CGCTGCACGTGGTGGT, the “relative binding free energy” value was -0.19 kcal/mol. GACGTCACGTGTGCGG was tested, and the “relative binding free energy” value was 0.13 kcal/mol. With ATTATCACGTGAGGCG the “relative binding free energy” value was 0.26 kcal/mol. For AGCATCACGTGTGTGG, the “relative binding free energy” value was -0.05 kcal/mol. With GATTGCACGTGGTGCG the “relative binding free energy” value was -0.04 kcal/mol. In the case of TGTGGCACGTGTCCAG, the “relative binding free energy” value was -0.16 kcal/mol. For AGGAACACGTGCGGGG, the “relative binding free energy” value was -0.06 kcal/mol. In the case of GGTATCACGTGTGAGA, the “relative binding free energy” value was 0.19 kcal/mol. For TTATTCACGTGCCGTG, the “relative binding free energy” value was 0.28 kcal/mol. In the case of AATAGCACGTGTCGTG, the “relative binding free energy” value was -0.05 kcal/mol. With ATTTGCACGTGAAGTA the “relative binding free energy” value was 0.11 kcal/mol. For ACTTGCACGTGTGAGT, the “relative binding free energy” value was 0.11 kcal/mol. AAGGACACGTGTGGTC was tested, and the “relative binding free energy” value was 0.05 kcal/mol. For TTGGACACGTGCGCGT, the “relative binding free energy” value was -0.18 kcal/mol. TGCGTCACGTGATATT was tested, and the “relative binding free energy” value was 0.17 kcal/mol. For TTGAACACGTGTTCGG, the “relative binding free energy” value was -0.07 kcal/mol. For AGGTGCACGTGAGTTG, the “relative binding free energy” value was 0.1 kcal/mol. With CTGGTCACGTGCGTTG the “relative binding free energy” value was 0.04 kcal/mol. For GACGGCACGTGGTGAG, the “relative binding free energy” value was -0.02 kcal/mol. With GGGTACACGTGTGCTA the “relative binding free energy” value was 0.05 kcal/mol. In the case of TGCGGCACGTGGCATT, the “relative binding free energy” value was -0.14 kcal/mol. GAATTCACGTGTCTGT was tested, and the “relative binding free energy” value was 0.37 kcal/mol. For TATTTCACGTGTCCGG, the “relative binding free energy” value was 0.43 kcal/mol. With GGGATCACGTGAGGTT the “relative binding free energy” value was 0.43 kcal/mol. With TCGGGCACGTGTTAAG the “relative binding free energy” value was 0.07 kcal/mol. With GCGGACACGTGTCGGT the “relative binding free energy” value was 0.19 kcal/mol. For TTGAGCACGTGTCGAG, the “relative binding free energy” value was -0.07 kcal/mol. For CTTGGCACGTGATAAG, the “relative binding free energy” value was -0.07 kcal/mol. For ACGGTCACGTGGTTAT, the “relative binding free energy” value was 0.15 kcal/mol. For TGTAACACGTGGTTCT, the “relative binding free energy” value was -0.17 kcal/mol. For AGGATCACGTGCGGGA, the “relative binding free energy” value was 0.11 kcal/mol. For TGGTTCACGTGTCGAT, the “relative binding free energy” value was 0.2 kcal/mol. With GGCAGCACGTGGGAGG the “relative binding free energy” value was -0.21 kcal/mol. GACCTCACGTGTGGGT was tested, and the “relative binding free energy” value was 0.27 kcal/mol. With TGAATCACGTGGAGGT the “relative binding free energy” value was 0.13 kcal/mol. In the case of TCTATCACGTGTCGTT, the “relative binding free energy” value was 0.18 kcal/mol. With CGTAGCACGTGTGAGA the “relative binding free energy” value was 0.1 kcal/mol. In the case of GGTGGCACGTGGTGAG, the “relative binding free energy” value was -0.02 kcal/mol. With CGAATCACGTGATGGG the “relative binding free energy” value was 0.45 kcal/mol. For TGTTTCACGTGTTCAA, the “relative binding free energy” value was 0.29 kcal/mol. In the case of GGTGGCACGTGTTGTC, the “relative binding free energy” value was 0.08 kcal/mol. In the case of AGTAGCACGTGTCTGT, the “relative binding free energy” value was -0.15 kcal/mol. TTGGACACGTGAATTA was tested, and the “relative binding free energy” value was 0.39 kcal/mol. For ATATGCACGTGTTATG, the “relative binding free energy” value was 0 kcal/mol. In the case of AAGTGCACGTGAGTTC, the “relative binding free energy” value was 0.31 kcal/mol. For TTTTGCACGTGTCGGC, the “relative binding free energy” value was 0.13 kcal/mol. AATTACACGTGATGTA was tested, and the “relative binding free energy” value was 0.17 kcal/mol. With TTAGGCACGTGTATTG the “relative binding free energy” value was -0.05 kcal/mol. AGGATCACGTGCTTGT was tested, and the “relative binding free energy” value was 0.19 kcal/mol. With TAGTTCACGTGTGGCC the “relative binding free energy” value was 0.34 kcal/mol. For GTCAGCACGTGTTATG, the “relative binding free energy” value was 0 kcal/mol. GTCAGCACGTGAGGGT was tested, and the “relative binding free energy” value was 0.22 kcal/mol. In the case of TATTGCACGTGCGTCT, the “relative binding free energy” value was -0.13 kcal/mol. GGTACCACGTGGAAGT was tested, and the “relative binding free energy” value was 0.09 kcal/mol. With GGTCGCACGTGCGGTA the “relative binding free energy” value was -0.09 kcal/mol. For ATTTACACGTGGGTCA, the “relative binding free energy” value was 0 kcal/mol. With CTGTTCACGTGGCTTA the “relative binding free energy” value was 0.19 kcal/mol. With GGTATCACGTGATAGT the “relative binding free energy” value was 0.21 kcal/mol. In the case of GGCGTCACGTGAAAGT, the “relative binding free energy” value was 0.25 kcal/mol. In the case of CTGGACACGTGTGCTG, the “relative binding free energy” value was 0.1 kcal/mol. In the case of ATCTGCACGTGGTATG, the “relative binding free energy” value was -0.09 kcal/mol. GATGTCACGTGTGGGC was tested, and the “relative binding free energy” value was 0.2 kcal/mol. In the case of AGTAGCACGTGGGGCG, the “relative binding free energy” value was -0.16 kcal/mol. TATTCCACGTGATGTT was tested, and the “relative binding free energy” value was 0.17 kcal/mol. In the case of TTAGGCACGTGATTCT, the “relative binding free energy” value was -0.07 kcal/mol. AGGTTCACGTGTGCGA was tested, and the “relative binding free energy” value was 0.22 kcal/mol. AGGGGCACGTGGATGA was tested, and the “relative binding free energy” value was -0.14 kcal/mol. In the case of ATGTGCACGTGAGAGG, the “relative binding free energy” value was 0.28 kcal/mol. For TGTTTCACGTGTGTGT, the “relative binding free energy” value was 0.27 kcal/mol. For TGTTTCACGTGGTGAA, the “relative binding free energy” value was 0.29 kcal/mol. GAGGGCACGTGCAGTT was tested, and the “relative binding free energy” value was 0.02 kcal/mol. With TGATGCACGTGGATCG the “relative binding free energy” value was -0.15 kcal/mol. In the case of ATTCGCACGTGGAATT, the “relative binding free energy” value was 0.15 kcal/mol. AGTGTCACGTGTAGGG was tested, and the “relative binding free energy” value was 0.04 kcal/mol. For GGCTGCACGTGGATTG, the “relative binding free energy” value was 0.1 kcal/mol. CGTTGCACGTGTTTGC was tested, and the “relative binding free energy” value was 0.02 kcal/mol. With TTCAGCACGTGCGTGT the “relative binding free energy” value was -0.15 kcal/mol.
